Source: the supplement of paper PMC3334620
Whole data set: some 33,000 sequences, median “E-score (-0.5 to 0.5)” near -0.04, cut for the highest 2% near 0.36. This is one part of the list.

Molecular target: T1, Hmlalpha2 (UniProt P0CY09)
T1 sequence: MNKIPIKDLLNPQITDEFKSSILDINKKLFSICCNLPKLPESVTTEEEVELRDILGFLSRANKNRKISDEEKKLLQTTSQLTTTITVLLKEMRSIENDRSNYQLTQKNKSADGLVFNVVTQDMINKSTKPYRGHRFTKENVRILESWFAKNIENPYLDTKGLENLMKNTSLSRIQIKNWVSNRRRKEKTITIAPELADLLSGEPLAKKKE
Experiment: PBM E-score (8-mer binding enrichment) (E-score (-0.5 to 0.5)); higher = stronger / more preferred TF binding; most listed sequences are background and not binding sites
Conditions: protein concentration: 200 nM; construct: GST-full length
Procedure, shortened: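 The E-score, a modified Wilcoxon-Mann-Whitney statistic, was computed by the Universal PBM Analysis Suite for every ungapped eight-base word pooled with its reverse complement. Scans behind it were normalised with masliner after bound GST-tagged yeast transcription factors were detected with fluorescent anti-GST. The proteins, at about 100-200 nM, had been applied to universal all-10-mer Agilent arrays made double-stranded by primer extension.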

| Sequence | PBM E-score |
| --- | --- |
| TCACTAAA | 0.0546 |
| AGAACTGC | -0.0301 |
| AGATCACG | -0.00459 |
| GACAGTTA | -0.0426 |
| TCCGCGAA | 0.0828 |
| AGCTTAGG | -0.136 |
| CCGGTCCA | -0.278 |
| CAGGTCCG | -0.213 |
| ACCTAGAC | -0.203 |
| AGTAGGTC | -0.0261 |
| CCAGGTGC | -0.17 |
| AGGTCCCA | -0.23 |
| AGTAGGAA | -0.0598 |
| CGGGGGAA | -0.188 |
| CTCACCTA | -0.0554 |
| CACGTTTA | 0.298 |
| GGTGTGCA | -0.155 |
| TACTCCTA | 0.0754 |
| GTGAACCA | 0.181 |
| CTAGTTCC | 0.105 |
| CTCCAAAC | -0.0262 |
| GTCATAGA | -0.121 |
| CCGTGAAG | -0.231 |
| ACGTACAT | 0.381 |

| Sequence | PBM E-score |
| --- | --- |
| ATTGGTGG | -0.0956 |
| CATCGGTA | -0.217 |
| CTTAATCC | -0.244 |
| GGGGTGAA | -0.218 |
| GCAGTCCC | -0.267 |
| CTTTCTGC | 0.00433 |
| GTTCTTAA | 0.0993 |
| AACTATAG | -0.096 |
| CAGAATCA | 0.0871 |
| GGTGCACC | -0.0854 |
| CTCGACCA | -0.163 |
| AATTGGAC | 0.0202 |
| CCATGCGC | -0.114 |
| AGGACCCA | -0.338 |
| GGCTACGA | 0.00875 |
| ACGCAGTC | 0.0216 |
| CATCATCC | -0.0906 |
| CCTAGTAA | 0.109 |
| AATGTACA | 0.366 |
| ATTGCTCG | -0.134 |
| CTTTCAAA | -0.00235 |
| CCGTCTAC | 0.0117 |
| CACGCCTC | 0.0108 |
| CCGAGGCA | -0.191 |

| Sequence | PBM E-score |
| --- | --- |
| GCACTTAA | 0.182 |
| GCCGAATA | 0.0197 |
| AAACGGAT | 0.125 |
| ACCTGACT | 0.0498 |
| AAATCGGC | -0.196 |
| AGCAACCA | -0.101 |
| CGGTGACC | -0.224 |
| AGTATTAG | 0.0572 |
| AAAAACCT | 0.0567 |
| CTGCCCGA | -0.0567 |
| AAAGGGTA | 0.136 |
| AAGCGCCC | -0.344 |
| CAAGGGGA | -0.0247 |
| CGAGTCTA | -0.175 |
| TCAAATCA | 0.113 |
| ATTGCCTG | -0.0639 |
| GAACATTA | 0.19 |
| AGGGCCTG | -0.0997 |
| CCATCACA | 0.00393 |
| AACTGATG | 0.0686 |
| CACGGATG | 0.0633 |
| GTACGAAA | 0.161 |
| GAACTATA | 0.0407 |
| ACTCTAGG | -0.076 |

| Sequence | PBM E-score |
| --- | --- |
| CGGACAGC | -0.205 |
| CCGAGAGA | -0.267 |
| ACGCGCGA | 0.0725 |
| AGTTATAT | 0.0626 |
| AACTCATA | -0.00023 |
| AAAGAGCA | 0.00963 |
| AGCGCCAA | -0.264 |
| CGGGACAG | -0.212 |
| GAGTTTCC | -0.117 |
| GTTGCTCA | -0.0575 |
| ACAGAGTC | -0.0414 |
| GTTACCAA | 0.062 |
| ACTCACCT | -0.122 |
| CGGTATAC | -0.0511 |
| GGTATGCA | -0.0286 |
| CGCTTGGA | -0.106 |
| TATCTCGA | -0.125 |
| AGTGTAAA | 0.38 |
| CAGTATGC | -0.113 |
| GGCTCGAC | -0.0678 |
| GCCTCACC | -0.249 |
| ATCGATGG | -0.0457 |
